Test results published in PubChem BioAssay AID588591 (National Center for Advancing Translational Sciences (NCATS), 2011).
In all, about 390,000 compounds went through this assay and about 4,700 (1.2%) were called active. The shares of active, inactive and inconclusive entries below differ from those in the screen. Calls follow the shape of the dose curve; as a rule, active = well fitted inhibition curve with a large enough effect; inconclusive = small, poorly fitted or top-dose-only effect, or another doubt; inactive = no such curve, though single readings can be large or run the other way. Where the call is inconclusive, the potency comes from a doubtful curve fit.

The molecules below were run against DNA polymerase eta (Homo sapiens) (UniProt Q9Y253) (assay: qHTS for Inhibitors of Polymerase Eta). Settings: recombinant Pol eta, fluorescent DNA replication assay; series mostly up to 114 µM; activity change, negative = inhibition: at the top concentration.
Chain of UniProt Q9Y253 (Q9Y253 whole entry, looked up): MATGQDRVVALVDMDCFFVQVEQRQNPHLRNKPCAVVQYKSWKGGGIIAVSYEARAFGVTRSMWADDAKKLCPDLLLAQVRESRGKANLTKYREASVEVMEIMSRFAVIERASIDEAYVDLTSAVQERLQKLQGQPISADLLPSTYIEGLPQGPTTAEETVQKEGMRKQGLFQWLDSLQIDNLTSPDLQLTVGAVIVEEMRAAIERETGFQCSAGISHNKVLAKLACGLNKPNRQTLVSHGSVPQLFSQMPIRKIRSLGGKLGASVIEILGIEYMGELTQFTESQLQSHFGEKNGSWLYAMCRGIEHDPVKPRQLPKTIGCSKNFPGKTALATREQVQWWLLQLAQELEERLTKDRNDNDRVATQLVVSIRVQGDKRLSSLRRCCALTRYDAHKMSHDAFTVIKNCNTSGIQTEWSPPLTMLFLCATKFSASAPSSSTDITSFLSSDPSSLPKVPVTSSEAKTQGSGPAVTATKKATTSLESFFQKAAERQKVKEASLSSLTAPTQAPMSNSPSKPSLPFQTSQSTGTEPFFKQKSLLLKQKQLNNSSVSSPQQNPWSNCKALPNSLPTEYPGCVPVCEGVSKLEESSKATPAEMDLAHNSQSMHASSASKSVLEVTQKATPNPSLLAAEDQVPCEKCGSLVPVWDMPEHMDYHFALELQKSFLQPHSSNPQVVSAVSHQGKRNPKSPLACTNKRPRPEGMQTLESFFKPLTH
Procedure, shortened: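 Pol eta at 10 nM preincubated with compounds 15 min at room temperature; reaction started with fluorescent substrate (50 nM final) and read kinetically at 0 and 10 min.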
% is scaled to controls: 0 for no effect and ±100 for the full control effect; potency is read from the fitted curve at half-maximal effect; tags tell the direction and shape of the fitted curve.

Row | SMILES | Potency | activity change, negative = inhibition
1 | C=CC(=O)N1C/C(=C/c2ccc(Cl)cc2)C(=O)/C(=C\c2ccc(Cl)cc2)C1 | inconclusive: 8.91 µM [inhibitor, partial curve, poor fit] | 
2 | CCc1nnc(NC(=O)/C=C/c2ccc(C)o2)s1 | inconclusive: 28.2 µM [inhibitor, partial curve, poor fit] | 
3 | CC(Oc1ccc(-c2ccccc2)cc1)C(=O)N/N=C/c1cccnc1 (configuration not stated) | inconclusive: 89.1 µM [inhibitor, partial curve, poor fit] | 
4 | COc1ccc(-c2cc(C(=O)O)sc2C)cc1 | inconclusive: 100 µM [inhibitor, partial curve, poor fit] | 
5 | O=C(CSc1nnc2ccccn12)NC(=O)c1ccccc1Cl | active: 39.8 µM | 
6 | O=C(COc1ccccc1)Nc1sc2c(c1C(=O)Nc1ccccc1)CCCCC2 | active: 79.4 µM | 
7 | COc1ccc(OC)c(NC(=O)CCCSc2ccccc2)c1 | inconclusive: 89.1 µM [inhibitor, partial curve, poor fit] | 
8 | Cc1ccccc1NC(=O)c1sc2nc3c(c(-c4ccco4)c2c1N)CCC3 | inconclusive: 20 µM [inhibitor, partial curve, poor fit] | 
9 | COc1ccc2noc3c2c1C(=O)c1ccccc1-3 | inconclusive: 56.2 µM [inhibitor, partial curve, poor fit] | 
10 | O=C(CSc1nc2c([nH]c3ccccc32)c(=O)n1-c1cccc(Cl)c1)NCc1ccccc1 |  | inactive: -6.27%
11 | Cc1ccccc1-n1c(SCc2csc(Nc3ccccc3)n2)nnc1-c1cccnc1 | inconclusive: 44.7 µM [inhibitor, partial curve, poor fit] | 
12 | COC(=O)CC#N |  | inactive: 0.955%
13 | COc1ccc(S(=O)(=O)N2CCC(C(=O)NCCN3CCOCC3)CC2)cc1C | inconclusive: 89.1 µM [inhibitor, partial curve, poor fit] | 
14 | O=S(=O)(c1cc(O)ccc1O)c1cccc2c(S(=O)(=O)c3cc(O)ccc3O)cccc12 | active: 4.47 µM | 
15 | C=C(NC(=O)C(=C)NC(=O)c1csc(C2=NC3c4csc(n4)C4NC(=O)c5csc(n5)C(C(C)(O)C(C)O)NC(=O)C5CSC(=N5)/C(=C/C)NC(=O)C(C(C)O)NC(=O)c5csc(n5)C3(CC2)NC(=O)C(C)NC(=O)C(=C)NC(=O)C(=C)NC(=O)C(C(C)C)NC2C=Cc3c(C(C)O)cc(nc3C2O)C(=O)OC4C)n1)C(N)=O (configuration not stated) | inconclusive: 15.8 µM [inhibitor, single point] | 
16 | COc1ccc(-c2cc(C(=O)OCC(=O)N3CCCCC3)c3ccccc3n2)cc1OC | inconclusive: 22.4 µM [inhibitor, partial curve, poor fit] | 
17 | CNc1nc(Nc2ccc(Br)cc2)nc(N)c1[N+](=O)[O-] | inconclusive: 14.1 µM [inhibitor, partial curve] | 
18 | Cc1ccc(C2=NOC(=O)/C2=C\C=C\c2ccccc2)cc1 | active: 89.1 µM | 
19 | O=C(CCC(=O)c1ccc(F)cc1)OCc1nnc(-c2ccc([N+](=O)[O-])cc2)o1 |  | inactive: -5.51%
20 | Cc1ccc(S(=O)(=O)n2nc(-c3ccccc3)nc2NCc2ccccc2Cl)cc1 |  | inactive: -12.2%
21 | O=c1c(-c2ccc([N+](=O)[O-])cc2)coc2c(O)c(O)ccc12 | active: 3.16 µM | 
22 | Cc1ccc(NCC(=O)N=Nc2c(O)[nH]c3ccc([N+](=O)[O-])cc23)cc1 | inconclusive: 39.8 µM [inhibitor, partial curve] | 
23 | O=c1c(-c2cc(-c3ccc(F)cc3)nc3c2COc2ccc(Cl)cc2-3)coc2ccc(F)cc12 |  | inactive: -10.3%

Row | SMILES | Potency | activity change, negative = inhibition
24 | COC(=O)c1cccc(-n2sc3ccccc3c2=O)c1 |  | inactive: -0.478%
25 | O=C(Nc1ccc(O)cc1C(=O)O)c1ccc2c(c1)C(=O)N(Cc1ccco1)C2=O | active: 39.8 µM | 
26 | COc1ccc(N(/N=C2\Sc3ccccc3C2=O)C(C)=O)cc1 |  | inactive: -1.62%
27 | CNC(=O)c1c[nH]c2ccc(S(=O)(=O)Nc3ccccc3F)cc2c1=O | inconclusive: 31.6 µM [inhibitor, full curve] | 
28 | Cc1ccc(C(C)C)c(OCC(=O)Nc2cccc(-c3nc4ncccc4o3)c2)c1 | inconclusive: 50.1 µM [inhibitor, partial curve, poor fit] | 
29 | COC(=O)C1CCN(C(=O)COC(=O)CNS(=O)(=O)c2ccc(SC)c([N+](=O)[O-])c2)CC1 | inconclusive: 14.1 µM [inhibitor, partial curve, poor fit] | 
30 | O=C(O)CNc1ccccc1C(=O)O | active: 20 µM | 
31 | c1ccc(CSc2nnc(C3CCNCC3)o2)cc1 |  | inactive: -5.1%
32 | COc1ccc(OCC(=O)N/N=C/c2cccn2-c2cccc(C(=O)O)c2)cc1 | active: 5.01 µM | 
33 | CN1CCN(NC(=S)NC(C)(C)CC(C)(C)C)CC1 | inconclusive: 89.1 µM [inhibitor, partial curve, poor fit] | 
34 | O=C(CSc1nc(=O)n2cc(Cl)ccc2n1)Nc1cccc2ccccc12 | inconclusive: 17.8 µM [inhibitor, full curve] | 
35 | Cc1ccccc1-n1c(SCC(=O)c2cc(C)n(C)c2C)nnc1-c1ccncc1 | inconclusive: 17.8 µM [inhibitor, partial curve] | 
36 | NC(=O)C1CCN(c2nc3ccccc3nc2NS(=O)(=O)c2ccc(Br)cc2)CC1 | inconclusive: 25.1 µM [inhibitor, partial curve, poor fit] | 
37 | CCc1ccccc1OCCSc1nc(-c2cccs2)nc2cc(=O)[nH]n12 | inconclusive: 89.1 µM [inhibitor, single point] | 
38 | CCCCCn1c(NCc2ccco2)nc2ccccc21 | inconclusive: 89.1 µM [inhibitor, partial curve, poor fit] | 
39 | CSc1ccc(/C=C2\CCn3c2nc2cc(C(=O)O)ccc2c3=O)cc1 | active: 50.1 µM | 
40 | Cc1occc1C(=O)NC1CCCN(Cc2ccc(Cl)cc2)C1 (configuration not stated) |  | inactive: -17.2%
41 | COc1ccc(/C=C/C(=O)c2c(O)cc(C)oc2=O)c(OC)c1 |  | inactive: -6.75%
42 | O=C(/C=C/c1ccccc1)NC(NC(=S)Nc1cccc(O)c1)C(Cl)(Cl)Cl (configuration not stated) | inconclusive: 28.2 µM [inhibitor, partial curve, poor fit] | 
43 | O=C(COC(=O)c1ccc(F)cc1Cl)NCc1ccco1 | active: 39.8 µM | 
44 | Cn1cnnc1SCC(=O)Nc1ncc([N+](=O)[O-])s1 | active: 2.82 µM | 
45 | COC(=O)C1(Cc2ccc(O)c(CC3OC3(C)C)c2)OC(=O)C(O)=C1c1ccc(O)cc1 (configuration not stated) | inconclusive: 39.8 µM [inhibitor, partial curve] | 
46 | CC(Oc1ccc(Cl)cc1Cl)C(=O)NCCC1=CCCCC1 (configuration not stated) | inconclusive: 89.1 µM [inhibitor, partial curve, poor fit] | 

Row | SMILES | Potency | activity change, negative = inhibition
47 | CCN(CC(=O)NCc1ccc(F)cc1)C(=O)C1CCN(S(=O)(=O)c2ccc(C(C)C)cc2)CC1 |  | inactive: -6.25%
48 | Cc1cc(C)c(C)c(S(=O)(=O)N[C@@H](C)C(=O)OCc2cc(=O)n3cc(Br)ccc3n2)c1C | inconclusive: 56.2 µM [inhibitor, partial curve, poor fit] | 
49 | Cn1cc(C(=O)CCl)c2ccccc21 | inconclusive: 56.2 µM [inhibitor, partial curve, poor fit] | 
50 | Cc1noc(NS(=O)(=O)c2ccc(NC(=O)c3ccoc3C)cc2)c1C | active: 10 µM | 
51 | Cc1nc(N2CCC(C)CC2)c2c(C)c(C(=O)Nc3ccccc3C(F)(F)F)sc2n1 | inconclusive: 79.4 µM [inhibitor, partial curve, poor fit] | 
52 | O=C(COC(=O)Cc1ccc(S(=O)(=O)N2CCOCC2)s1)Nc1ccc([N+](=O)[O-])cc1 | inconclusive: 44.7 µM [inhibitor, partial curve] | 
53 | Cc1ccc(CCNC(=O)C23CN(Cc4ccccc4)CC2C(c2cccc([N+](=O)[O-])c2)=NO3)cc1 (configuration not stated) | inconclusive: 79.4 µM [inhibitor, partial curve, poor fit] | 
54 | O=C(OCc1cc(-c2ccccc2)no1)c1ccc2ccccc2n1 | inconclusive: 50.1 µM [inhibitor, partial curve, poor fit] | 
55 | COCCOC(=O)c1sc(=S)n(CCOC)c1N | inconclusive: 56.2 µM [inhibitor, partial curve, poor fit] | 
56 | COc1cccc(-c2nc3c(c(C)nn3-c3ccccc3)c3cc(OC)c(OC)cc23)c1 |  | inactive: -11.3%
57 | O=C(O)c1ccc(-c2ccc(/C=N/Nc3ccc([N+](=O)[O-])cc3)o2)cc1 | active: 50.1 µM | 
58 | O=C(COc1ccccc1C(=O)N/N=C\c1ccc(O)c(O)c1)N/N=C/c1ccc(O)c(O)c1 |  | inactive: -97.9%
59 | N#CC(C#N)=Cc1cc2ccccc2nc1N1CCOCC1 | inconclusive: 20 µM [inhibitor, partial curve, poor fit] | 
60 | CN(c1ccccc1)c1ncnc2c1cnn2C |  | inactive: -14.5%
61 | N=c1c(C(=O)NCc2ccc(F)cc2)cc2c(=O)n3ccccc3nc2n1Cc1ccco1 | active: 39.8 µM | 
62 | CN(C(=O)COC(=O)c1cc(-c2ccco2)nc2ccccc12)C1CCS(=O)(=O)C1 (configuration not stated) | active: 6.31 µM | 
63 | O=C(CSc1nnc(COc2ccccc2Cl)o1)NC(=O)NCc1ccco1 | active: 50.1 µM | 
64 | CC(C)[C@H](NS(=O)(=O)c1ccccc1)C(=O)OCC(=O)Nc1ccccc1Sc1ccccc1 | inconclusive: 70.8 µM [inhibitor, partial curve] | 
65 | CC1NC(=O)NC1CCCCCC(=O)NCCc1ccccc1 (configuration not stated) |  | inactive: 12%
66 | O=C(N/N=C/c1cccc([N+](=O)[O-])c1)c1cc2c(ccc3ccccc32)o1 | inconclusive: 3.16 µM [inhibitor, full curve, poor fit] | 
67 | COc1cccc(=O)c2c(C)n(-c3ccc(C(=O)O)cc3)c(C)c12 | active: 12.6 µM | 
